Reference: PubChem BioAssay AID1508624 (National Center for Advancing Translational Sciences (NCATS), 2021)
Hit rate of the full screen: of about 48,000 compounds, about 120 (0.25%) were called active. Inconclusive results (about 4%) are left out. The call rests on the fitted dose curve; in most records, active means well fitted activation curve with a large enough effect; inconclusive means small, poorly fitted or top-dose-only effect, or another doubt; inactive means no such curve, though single readings can be large or run the other way. Some of the results follow.

test: Primary qHTS for Identification of Small Molecule Activators of Huntingtin-Antisense Promoter Activity; settings: HEK293 HTT-AS promoter firefly luciferase reporter, 24 h; series mostly up to 57.5 µM; activity change, positive = activation: at the top concentration; further: nearly all actives have a fitted effect of over 55% in size
Summary of the method: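 Firefly luciferase signal from promoter-reporter HEK293 cells was scaled between vehicle (0%) and zero RLU (-100%). Compounds were tested at final concentrations of up to 57.5 uM over 24 h at 37 degrees C. PTC124 at 50 uM final served as control inhibitor.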

Activity change, positive = activation, inactive:
O=c1c(N2CCN(c3ccccc3)CC2)csc2ccc(Cl)cc12 -3.33%
CCN1c2ccccc2-n2cccc2C12CCN(C(=O)Nc1ccccc1Br)CC2 -34.7%
CCCCn1cc(S(=O)(=O)c2ccccc2)c(=O)c2cc(F)c(N3CCN(CCC)CC3)cc21 -8.06%
CCOCCn1ccc2c(OCC(=O)NCc3ccc(F)cc3)cccc2c1=O -14.4%
COCCn1c(=O)[nH]c2cc(C(=O)N3CCN(c4ccc(Cl)cc4)CC3)ccc2c1=O -43.5%
Cc1ccc(CN2CCC(CNC(=O)c3cnn(-c4ccccc4)c3C3CCN(C(=O)OC(C)(C)C)CC3)CC2)cc1 -7.55%
Cc1ccc2nc(NC(=O)c3nc(SCc4ccccc4F)ncc3Cl)sc2c1 0%
Cc1ccc2c(c1)C(=O)C(=O)N2Cc1ccc(OCCC(C)C)cc1 -10.8%
COc1ccc(NC(=O)c2cc(C(C)=O)n3ccccc23)cc1 4.4%
COc1ccc(NC(=O)c2oc3ccc(S(=O)(=O)N4CCCCC4)cc3c2C)cc1Cl 0%
COc1cc2c(=O)n(Cc3ccco3)c(=O)n(CC(=O)Nc3ccc(F)cc3)c2cc1OC -23.7%
CCOc1cc2[nH]c(=O)n(Cc3ccc(C(=O)N4CCN(c5ccccc5)CC4)cc3)c(=O)c2cc1OCC -21.6%
CSc1ncc(Cl)c(C(=O)Nc2cc(C(F)(F)F)ccc2Cl)n1 5.01%
Cc1nc(-c2ccc(Cl)cc2)sc1CCNC(=O)C(=O)Nc1ccc2c(c1)OCCO2 -15.7%
O=C(O)c1ccc(NCc2nc3ccccc3n2CCOc2ccccc2Cl)cc1 -13.5%
O=C(CSc1nc(=O)n(Cc2cccnc2)c2c1CCC2)Nc1cccc(Cl)c1 -40.8%
COc1cc(C(=O)N2CCN(CCc3ccncc3)CC2)cc(OC)c1OC -1.19%
COc1cccc(-n2c(=O)c3c(C)c(C(=O)N(C)C)sc3n(Cc3cccc(C)c3)c2=O)c1 -15.9%
Cc1ccc(NC(=O)Cn2c(=O)n(CC3CCC(C(=O)NC(C)C)CC3)c(=O)c3sccc32)cc1 (configuration not stated) -22.1%
COc1ccc(-c2nc(C)c(CCNC(=O)C(=O)Nc3ccccc3F)s2)cc1 0.482%
COc1ccccc1-n1nc(-c2ccccc2)c2cnc3c(F)cc(F)cc3c21 -20.6%
COc1ccc(C(CNC(=O)COc2cc(C)cc(C)c2)N2CCCCC2)cc1 (configuration not stated) 5.37%
CCc1cc(S(=O)(=O)O)c2cc(C(C)C)cccc1-2 -8.46%
COc1ccc(CCN2CCC(CNC(=O)c3cnn(-c4ccc(C)cc4)c3C3CCN(C(=O)OC(C)(C)C)CC3)CC2)cc1 -16%
COc1ccc(C2CC(=O)N(Cc3ccccc3C)c3c2c(C)nn3-c2nc(C)cc(C)n2)c(OC)c1 (configuration not stated) -23.7%
COc1ccc(-c2nc3c4ccccc4n(CC(=O)Nc4ccc(C(C)C)cc4)c(=O)n3n2)cc1 9.55%
COc1ccc(NC(=O)CSC2=Nc3ccccc3C3=NC(CC(=O)NCc4ccccc4OC)C(=O)N23)cc1Cl (configuration not stated) -12.8%
Cc1ccccc1-n1c(SCC(=O)Nc2ccc(Cl)cc2Cl)nc(O)cc1=O -23.3%
Cc1cccc(N(C)S(=O)(=O)c2ccc(-c3cc(C)no3)s2)c1 -43.8%
OCCOCCN1CCN(C2=Nc3ccccc3Sc3ccccc32)CC1 -5.39%
CCc1sc(Nc2cccc(C)c2)nc1-c1cc2cccc(OC)c2oc1=O -2.61%
Cc1ccc(S(=O)(=O)N2CCc3cc(C(=O)N(C)Cc4ccccc4)ccc32)cc1 -32.4%
CC(=O)N1CCc2c(sc3c2c(=O)n(-c2ccc(F)cc2)c(=O)n3Cc2cc(C)ccc2C)C1 -7.29%
COc1ccc(-c2noc(-c3ccc(N4CCN(C)CC4)c([N+](=O)[O-])c3)n2)cc1 23.9%
COc1ccc(S(=O)(=O)c2c(O)c(C)cc(NS(=O)(=O)c3ccc(Cl)cc3)c2C(C)C)cc1 -33.5%
Cn1cnc(S(=O)(=O)N2CCC(C(=O)Nc3ccc(F)cc3F)CC2)c1 -1.41%
Cc1ccc(-c2noc(CNC(=O)COc3cc(C)c(Br)c(C)c3)n2)cc1 0.0015%
CCOCCc1nnc(NC(=O)C(=O)c2cc(C)n(-c3cccc(C)c3)c2C)s1 0%
O=C(NC1CCCCC1)c1ccc2c(c1)N(Cc1cccc(F)c1)C(=O)c1ccccc1S2 -14.3%
O=C(NC1CCCCC1)c1ccc2c(c1)sc1nc(-c3ccc(F)cc3)cn12 -2.13%
Cc1ccc(-n2nc(C(=O)N3CCN(c4ccc(F)cc4)CC3)c(=O)n(C)c2=O)cc1 -9.95%
COc1ccc2nc(NC(=O)c3nc(S(=O)(=O)Cc4ccccc4F)ncc3Cl)sc2c1 -15.4%
Cc1ccc(NC(=O)CSc2nc3ccc(Br)cc3[nH]2)c(C)c1 -31.1%
Cc1ccc(N2CC(C(=O)NCCS(=O)(=O)N3CCN(c4ccccc4F)CC3)CC2=O)cc1 (configuration not stated) -6.57%
CN(C)CCN(C(=O)c1ccco1)c1nc2c(F)cc(F)cc2s1 1.82%
CC1CCN(C(=O)CSc2c3c(nc4ccc(Cl)cc24)CCCC3)CC1 -35.6%
CC1=C(c2ccc(C(C)C)cc2)S(=O)(=O)NC1=NCc1ccccc1C -19.6%
Cc1nc2c3ccccc3nc(NNC(=O)CCC(=O)N3CCN(c4cccc(Cl)c4)CC3)n2n1 -18.4%
Cc1cccc(NC(=O)CSc2nc3ccccc3nc2N2CCC(C)CC2)c1 -23.2%
CCOc1ccc(N(Cc2ccccc2)C(=O)c2nc(SCC)ncc2Cl)cc1 -49.4%
COc1ccc(S(=O)(=O)N(CC(=O)Nc2ccc(F)c(Cl)c2)c2ccc(C)cc2)cc1OC -24.2%
O=C(COc1ccc(F)cc1)Nc1nnc(S(=O)(=O)N2CCc3ccccc32)s1 -51.1%
COc1cccc2c1C(=O)c1c(O)c3c(c(O)c1C2=O)C[C@@](O)(C(=O)CO)C[C@@H]3O[C@H]1C[C@H](N)[C@H](O)[C@H](C)O1 -32.9%
Cc1ccc(Nc2cc(C)nc(-n3nc(C)cc3C)n2)cc1 -33.3%
O=C(Nc1ccc(OC(F)(F)F)cc1)C1CCN(S(=O)(=O)c2ccc3[nH]c(=O)ccc3c2)CC1 -33.6%
COCCNc1ccc(-c2nc(-c3ccncc3)no2)cc1[N+](=O)[O-] 17.3%
Cc1cc(C(=O)NOCCO)c(Nc2ccc(I)cc2F)n(C)c1=O -24.4%
COc1cc(NC(=O)CSc2nc(-c3cccs3)cc(C(F)(F)F)n2)cc(OC)c1OC -16.7%
COc1cccc(-n2c(SCC(=O)N3CCc4ccccc43)nc3c([nH]c4ccccc43)c2=O)c1 -15.6%
O=C(Nc1ccc(F)cc1F)c1cccc2c1C(=O)N(C1CCCCC1)C2 -11.3%
Cc1cccc(CSc2nc3c(c(=O)[nH]2)CCC3)c1 -24.4%
CCc1ccc(C2CC(=O)c3c([nH]c(C(=O)OC4CCC(C)CC4)c3C)C2)cc1 (configuration not stated) -16.3%
COc1ccc(S(=O)(=O)NCc2cccn2Cc2cccc(C)c2)cc1Cl -50.6%
COc1ccc(-c2cc(C(F)(F)F)nc(SCC(=O)N3CCCCC3)n2)cc1OC -20.1%
CCS(=O)(=O)N1CCc2cc(C(=O)N3CCN(c4ccc(OC)cc4)CC3)ccc21 -5.8%
COc1ccc(OC)c(S(=O)(=O)N2Cc3ccccc3CC2C(=O)Nc2ccc(C)cc2C)c1 (configuration not stated) -30.3%
CCc1cccc(C)c1NC(=O)C(CC)n1nc(C)c2c(C)n(-c3ccccc3)nc2c1=O (configuration not stated) -8.71%
COc1ccc(-c2nc(SCC(=O)Nc3ccccc3)c(-c3ccc(F)cc3)[nH]2)cc1OC -15.4%
O=C(Cn1c(=O)n(-c2ccccc2)c(=O)c2ccc(C(=O)NCc3ccc4c(c3)OCO4)cc21)Nc1ccc(F)cc1 -44.7%
COC(=O)c1ccc(CSc2nc3c([nH]c4ccccc43)c(=O)n2-c2ccc(F)cc2)o1 -34.8%
CCc1cccc(NC(=O)Cn2c(=O)n(-c3ccccc3C)c(=O)c3c2c2cc(C)ccc2n3C)c1 -34.4%
COc1cc(OC)c(NC(=O)Cn2c(=O)c(C(F)(F)F)nc3ccccc32)cc1Cl -5.06%
Cc1ccc(CNC(=O)c2ccc(CS(=O)(=O)Cc3ccc(F)cc3)o2)cc1 -21%
CCCCc1nn2c(=O)cc(COC(=O)c3cccc(NC(=O)c4cccc(Cl)c4)c3)nc2s1 21.1%
Cc1ccccc1CN1CCc2nc(N3CCN(c4ncccn4)CC3)ncc2C1 -25.5%
COc1ccc(CCCc2nnc(SCC(=O)Nc3cccc(C)c3)o2)cc1C 20.8% [at 11.5 µM, percent change from vehicle, -100% = no light]
CCCCN(C)CCCNC(=O)Cn1ncc2c3ccccc3n(Cc3cccc(Cl)c3)c2c1=O -18.6%
Cc1cccc(N2CCN(S(=O)(=O)c3cn(C)c(C)n3)CC2)c1C -22.2%
CCOc1ccccc1C(=O)Oc1c(S(=O)(=O)c2ccc(C)cc2)c(C)nn1-c1ccccc1 -30.8%
CC(=O)Oc1ccc(C)cc1 2.81%
COc1ccc(-c2cc(OC(=O)c3ccc(F)cc3)c3c(C)oc(C)c3c(=O)c2)cc1OC -14.9%
COc1ccc(-c2noc(CSc3nnc(-c4ccccc4)n3-c3ccc(F)cc3)n2)c(OC)c1 -27.2%
Cc1ccc(Cc2c(C)nn(-c3nc(C)c(C(=O)N4CCCCC4C)s3)c2C)cc1 (configuration not stated) -6.88%
COc1ccc(NC(=O)C2CCCN(S(=O)(=O)c3c(C)n[nH]c3C)C2)cc1OC (configuration not stated) -28.3%
Cc1cccc(NC(=O)CN2c3ccccc3S(=O)(=O)c3ccccc32)c1C -25.7%
CCC(=O)N1CCc2cc(S(=O)(=O)NC(C(=O)NCCc3ccc(Cl)cc3)C(C)C)ccc21 (configuration not stated) 18.3%
Cn1nnnc1SCCNCc1ccc(OCc2ccccc2)cc1 -0.983%
COC(=O)c1sccc1S(=O)(=O)N(CC(=O)NCc1ccccc1)c1ccc(C)c(C)c1 -33.7%
COc1ccc(NC(=O)CSc2nnc3scc(-c4ccc(Cl)cc4)n23)cc1 1.81%
CCOC(=O)c1c(C)c(-c2ccccc2)n(CC(=O)Nc2cccc(F)c2)c1C -17.9%
CCOc1ccc(NC(=O)CCS(=O)(=O)c2ccc(Br)s2)cc1 -20.6%
Cc1cccc(NC(=O)CN2C(=O)COc3ccc(S(=O)(=O)N4CCC(C)CC4)cc32)c1C -24.4%
